# The RNAGym collection of RNA variant scans (doi:10.7554/elife.90254)
# The source gives no read counts; variants with many changes may rest on few reads.
# B1: LINE1-full (parent)
# chain: UACGUAGGUGGUUUUCCCCUGAUAGUGCUAAGGGGGCCUGGAAGUUUGGACUGGGCAGAGCUCAACACAGCGUGGCAAAGUGGCUGUGGCUAGACUGCCUCUCUGGAUUCCUCGUCACUCAGCAGGGCAUCUCUGAGAGAAAUGCC
# Variants of: B1
# Assay: self-cleavage, relative activity (ratio to wild type); higher = more cleavage; in vitro, sequencing; the parent is a self-cleaving ribozyme
row,Variant,self-cleavage
1,A78G U81A U119C A142G,0.54
2,A79G U119C U132C,0.97
3,C90G U102A G127C,0.05
4,A78G U109C A136G,1.38
5,G88A A117G A138G,0.02
6,A78G U100C U102G U108A,0
7,A77U U119A A129U,0.68
8,U81A U87C A124G,0.22
9,U85G U109C U130C A140G,0
10,U81G U115C A117C,2.85
11,A77G U109C U134C,2.85
12,U81C G89C A138G,0.04
13,A77G A136G A138U,2.67
14,A78G U100C U112C,1.25
15,G82A U132A U134C,2.05
16,G82A A92G C95A U108G U112C,0.07
17,A77C A78G A129G,1.31
18,A79U U81C U112G,0.33
19,U81C A94G G97A A136G,0.07
20,A79G C101U U112G C113U,0.37
21,A77G U109C U112A,0.46
22,C76U U87C A142G,0.53
23,G82A A107G U132A,1.47
24,U81C G82A U96C U109C,0

row,Variant,self-cleavage
1,A79G U119C U130C,1.34
2,A77U G88A A129G,0.04
3,U81A U102A A141G,2.08
4,A79U U112C A140G,1.21
5,A77G U91C A107G,0
6,G88A A124U U132C,0.06
7,A79G A92G A142G,0.27
8,U91C G97A A129G A138G,0.13
9,U87C U108C U134A A140U,0
10,U87C C98U A107G A136G,0
11,A78G G93U C131U,0.03
12,A77U A79G U85G A107G A140G,0
13,U91C U112C G114A,0.73
14,U87C U91C A117U A129G,0
15,C76U A94G U112C,0.19
16,A77G U81A A94G,1.6
17,A77U U109A U132C A136G,1.01
18,U81A A94G U119C U130C,0
19,A77G U115C A142G,1.15
20,A77G U119C A140G,1.47
21,U87A U96C U108C A140G,0.15
22,U81A U109C A141G,2.94
23,G83A A117G U119A,1.12
24,U81C G82A U104C A140G,1.8

row,Variant,self-cleavage
1,A77U G114A A124U C128U,0.89
2,A78G U112C A138G,1.34
3,A77C A117C U119C,1.41
4,A77G U96C A142G,0.07
5,U91C U108C U132C,0
6,U91C G106A U115A,0.1
7,A77U U119A A140G,1.15
8,A79G A117C A121U A140U,2.14
9,U87A U91C A117U,0
10,A77G U115C U119C,2.19
11,A79G U87A U130C,0.06
12,U85G A121U U132C,0
13,G82A A121U U132G,2.2
14,C76U A124U U143C,1.48
15,A77G U81C A94G A138G,0
16,U85C U91A C131G,0.11
17,A77G U119G C133U,1.65
18,A78G G93A A138U,0
19,A78G A79G U109C,2.3
20,A77U U100C U143C,1.75
21,G82A C84U A107G U134C A142G,0.56
22,A77G A79G U119C A140G,0
23,U87C A92G A138G,0.12
24,U87C A124U U134C A136U,0.24

row,Variant,self-cleavage
1,A77U U112C A142G,1.03
2,A78G U91C G114A,0.26
3,U85C C120U A141G G144A,0.1
4,A78G U91A C146U,0.61
5,U81C G83A U108C A138G,1.51
6,C90G G126U A138U,0.03
7,C84A U96A A141G,0.04
8,U81A A121U A142G U143C,2.51
9,U85G A121U A138G A140U A142G,0
10,A77U A140U U143C,1.09
11,A79G A129G U132C,2.16
12,G82A U102C A124G,1.82
13,U91C C99U U115C,0.24
14,U85C A94U A121G,0
15,U87C G106C A124U,0.22
16,U91C U96C A136G U143A,0
17,C76U A92G A94C U115C,0.04
18,U85C G86A U96C U119A A141G,0.08
19,U91C A94U A138G,0.08
20,U85A U104G A136G,0.1
21,U87C U100A U112A U134C,0.08
22,G83A U91C G135U,0.43
23,A79U U102C A136U,1.79
24,A78G U112A A121G,0

row,Variant,self-cleavage
1,U87A A121G A142G,0.1
2,A78G U91A A140U,0.96
3,U81C U119C C123U,1.97
4,A79G U85C U108C,0
5,G83A U91C A92G C145U,0.1
6,A78U A138G U143C,2.19
7,A78G A107G U134C,1.8
8,U85C U109A A136G,0
9,A77U A94G U102C,0.15
10,A78G U96A U115C A140C,0.06
11,U85C G89A U109C,0.03
12,A77U A78G U104A U108C C116A A129G A140G,0.45
13,A79G U102C A140G,1.72
14,A78G A79G A124G A138G,0.95
15,U85C A129U U134C,0.15
16,C90U U96C A124G U143A,0.06
17,U87A U102A U109A,0.07
18,U85C U130C U134C,0.14
19,A77U G86A A136G,0.08
20,A77G U85A A121U,0.03
21,A79G U87C U109A U130C,0
22,U81C A94G A107G A121U G127A,0.95
23,U81A A94G U102A U108C U143A,0
24,G88A U96A U108C,0.04

row,Variant,self-cleavage
1,A77U U96A U104A,0.05
2,A78G G106A A141G,1.42
3,C76U A117G A142G,2.25
4,A77U U109C A141G,0.92
5,A79G U87A A141G,0.09
6,G86A A92U A107U,0.05
7,U87C U112C C116A A121C,0.18
8,U87A U132A A141G,0.09
9,U81A G82U G93U,0.04
10,G89U U102C A121G,0.08
11,U81A U87A U108C U112C,0.32
12,A78U U104A U115C,1.21
13,G89A U109C U132C,0.04
14,G88A U102C U119C,0.05
15,A79G U96A U115C,0.05
16,A78G U96C U115A,0.21
17,G80A U87C A107G,0.41
18,A78G G97A C103U C113U A142G,0.07
19,U85C A140G C146U,0.13
20,G89A U108C A142G,0.02
21,G86A A124G A136G,0.06
22,G80C A124U A141G,0.42
23,A79U G83A A107G A121U,1.64
24,A78G U85A C90A,0.11

row,Variant,self-cleavage
1,U85C C110U A136G,0.1
2,U87C U96C A138G,0.14
3,U85C G89U U134G A140G,0.02
4,A92C A124G G125U,0.05
5,A79G A94G U104C,0.74
6,C90U U115G A141G,0.04
7,U87C G114A U143A,0.18
8,U91C A136G A138U,1.07
9,U87A A124G A140G,0
10,U87A U134A A140G,0.09
11,U87A U104C A140U,0.44
12,U91C U102C U132A,0.89
13,C90U C103U U115A,0.03
14,A78G A92G A117G,0
15,A77U A124G G139A,1.26
16,U91C U104C A129U U134C,1.02
17,A78G A79U U85C U100C,0.43
18,A79G G80A U134C,0.98
19,U85A A121G A124U A129U,0.1
20,A79U U100C U119A,2.22
21,A77G U96G U109C,0
22,A79G U108C C111A,2.18
23,A77U U115A A136G A140U,1.89
